Results are given in words; binding and its absence hold for the method and conditions named. In cells and extracts the contact can be indirect. Some entries that bind do so weakly or less than the wild type.
Assays:
Test in all cases: co-IP; GFP-PRR14 (1-212) constructs precipitated from Lenti-X 293T lysates (NP-40 lysis buffer with protease and phosphatase inhibitors and benzonase) with anti-GFP antibody on Protein A/G magnetic beads, 2.5 hours at +4°C; Western blot for HP1 isoforms; Normal Rabbit IgG as mock
[1] = molecular target: GFP-tagged PRR14 (1-212) HP1-binding site 2 mutant (154-155EE) (human) (UniProt Q9BWN1)
[2] = molecular target: GFP-tagged PRR14 (1-212) double mutant (54-55EE and 154-155EE) (human) (UniProt Q9BWN1)
[3] = molecular target: GFP-tagged PRR14 (1-212) wild-type fragment (human) (UniProt Q9BWN1)
[4] = molecular target: GFP-tagged PRR14 (1-212) HP1-binding site 1 mutant (54-55EE) (human) (UniProt Q9BWN1)

Amino acid sequences for entries named in this document (tags omitted). A change or cut given only in a name is not applied to a line headed by its entry. Chains listed by the source or under a name are the forms on record and can include a tag or linker. Residues count along the entry.
GFP-tagged PRR14 (1-212) wild-type fragment (Q9BWN1, residues 1-212): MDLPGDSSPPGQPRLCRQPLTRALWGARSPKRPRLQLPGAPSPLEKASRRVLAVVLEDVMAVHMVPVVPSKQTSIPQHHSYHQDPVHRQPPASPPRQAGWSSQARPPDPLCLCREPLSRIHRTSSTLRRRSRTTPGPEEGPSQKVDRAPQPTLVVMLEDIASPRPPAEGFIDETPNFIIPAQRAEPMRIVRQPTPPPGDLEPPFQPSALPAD
GFP-tagged PRR14 (1-212) HP1-binding site 2 mutant (154-155EE) (Q9BWN1, form named): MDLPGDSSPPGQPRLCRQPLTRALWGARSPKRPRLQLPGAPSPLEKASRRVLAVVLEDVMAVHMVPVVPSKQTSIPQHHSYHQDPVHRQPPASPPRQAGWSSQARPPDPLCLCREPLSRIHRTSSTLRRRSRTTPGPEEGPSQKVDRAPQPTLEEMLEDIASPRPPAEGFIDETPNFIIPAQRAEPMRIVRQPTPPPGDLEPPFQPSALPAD
GFP-tagged PRR14 (1-212) double mutant (54-55EE and 154-155EE) (Q9BWN1, form named): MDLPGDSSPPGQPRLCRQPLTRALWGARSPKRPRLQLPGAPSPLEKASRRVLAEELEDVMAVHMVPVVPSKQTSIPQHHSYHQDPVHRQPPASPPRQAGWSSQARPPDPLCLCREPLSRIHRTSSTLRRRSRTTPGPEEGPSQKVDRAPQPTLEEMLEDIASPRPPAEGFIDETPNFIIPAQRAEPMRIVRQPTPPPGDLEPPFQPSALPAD
GFP-tagged PRR14 (1-212) HP1-binding site 1 mutant (54-55EE) (Q9BWN1, form named): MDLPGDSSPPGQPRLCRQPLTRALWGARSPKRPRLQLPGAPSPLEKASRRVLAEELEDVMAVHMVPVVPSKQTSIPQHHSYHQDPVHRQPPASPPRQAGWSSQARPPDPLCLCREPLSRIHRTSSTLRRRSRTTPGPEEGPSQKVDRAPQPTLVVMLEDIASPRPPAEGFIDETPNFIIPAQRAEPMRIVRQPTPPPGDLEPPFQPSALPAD
UniProt P45973: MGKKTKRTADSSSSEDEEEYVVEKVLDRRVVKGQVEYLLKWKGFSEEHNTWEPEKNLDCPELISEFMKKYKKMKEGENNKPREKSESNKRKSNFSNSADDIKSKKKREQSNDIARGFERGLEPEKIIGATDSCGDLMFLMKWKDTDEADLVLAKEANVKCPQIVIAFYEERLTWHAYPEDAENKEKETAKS
UniProt P83916: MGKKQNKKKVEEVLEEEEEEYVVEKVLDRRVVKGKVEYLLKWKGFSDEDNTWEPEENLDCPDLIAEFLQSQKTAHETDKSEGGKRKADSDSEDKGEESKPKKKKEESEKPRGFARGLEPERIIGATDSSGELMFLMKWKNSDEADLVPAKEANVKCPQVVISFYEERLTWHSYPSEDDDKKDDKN
UniProt Q13185: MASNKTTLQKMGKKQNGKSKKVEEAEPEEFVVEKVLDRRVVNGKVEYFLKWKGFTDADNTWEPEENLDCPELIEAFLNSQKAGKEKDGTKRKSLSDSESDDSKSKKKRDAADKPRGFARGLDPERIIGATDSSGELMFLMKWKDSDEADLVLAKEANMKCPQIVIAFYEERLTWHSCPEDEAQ

Row | binding [1] | binding [2] | binding [3] | binding [4] | Substance
1 | binds | no binding | binds | – | Heterochromatin Protein 1 alpha (HP1α) (from UniProt P45973 1-191)
2 | binds | no binding | binds | – | Heterochromatin Protein 1 beta (HP1β) (from UniProt P83916 1-185)
3 | binds | no binding | binds | binds weakly | Heterochromatin Protein 1 gamma (HP1γ) (from UniProt Q13185 1-183)

Reference: PMC9839372
